Source: article PMC13434659
No constants are given. Whether binding was seen depends on the method and setting. Binding seen in cells or lysates may run through a third protein. Some binding calls cover weakened binding; strength is not graded here. For part of these data: Sequences can lack the tags named with a protein.

Columns and labels:
Flag-tagged PKD2 (human) = target: T1, Flag-tagged PKD2 (human) (UniProt Q13563); assay: co-IP; HEK cell lysates (CelLytic M lysis buffer), antibody 5 h at 4 °C, protein A/G magnetic beads overnight, Western blot; proteins transfected or endogenous; for the PKD2 N/C and PKD2/PKD2 pairs with or without RASSF4 over-expression
T1 sequence: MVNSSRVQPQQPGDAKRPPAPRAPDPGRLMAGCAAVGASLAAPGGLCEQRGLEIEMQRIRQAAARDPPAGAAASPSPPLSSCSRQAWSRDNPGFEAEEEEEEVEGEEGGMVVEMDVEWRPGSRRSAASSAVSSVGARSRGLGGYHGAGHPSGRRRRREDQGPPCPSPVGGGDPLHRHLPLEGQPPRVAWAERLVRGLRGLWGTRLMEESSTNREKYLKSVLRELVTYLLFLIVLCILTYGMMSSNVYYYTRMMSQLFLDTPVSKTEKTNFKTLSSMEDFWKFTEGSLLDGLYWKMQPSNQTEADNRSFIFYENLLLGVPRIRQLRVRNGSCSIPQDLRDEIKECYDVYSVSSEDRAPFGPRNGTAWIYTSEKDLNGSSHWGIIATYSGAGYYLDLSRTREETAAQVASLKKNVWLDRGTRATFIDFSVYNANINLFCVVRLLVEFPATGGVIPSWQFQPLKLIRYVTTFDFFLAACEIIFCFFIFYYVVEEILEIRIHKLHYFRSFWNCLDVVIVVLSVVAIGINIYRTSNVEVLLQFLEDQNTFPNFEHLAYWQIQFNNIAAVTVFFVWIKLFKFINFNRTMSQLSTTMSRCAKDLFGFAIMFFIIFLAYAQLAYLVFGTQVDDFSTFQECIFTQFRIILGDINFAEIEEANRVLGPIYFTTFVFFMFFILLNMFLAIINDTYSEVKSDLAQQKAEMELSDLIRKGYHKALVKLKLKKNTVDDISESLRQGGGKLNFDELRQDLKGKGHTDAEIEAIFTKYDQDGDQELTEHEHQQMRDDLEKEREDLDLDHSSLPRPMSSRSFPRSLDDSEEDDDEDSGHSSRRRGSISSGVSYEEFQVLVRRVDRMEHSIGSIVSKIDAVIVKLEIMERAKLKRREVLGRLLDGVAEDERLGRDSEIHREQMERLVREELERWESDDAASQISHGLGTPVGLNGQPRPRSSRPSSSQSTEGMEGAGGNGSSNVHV

[1] = target: T2, HA-tagged human PKD2 expressed in Xenopus oocytes (human) (UniProt Q13563); assay: co-IP; lysates of Xenopus oocytes injected with mRNAs, protein A/G magnetic beads, Western blot
T2 sequence: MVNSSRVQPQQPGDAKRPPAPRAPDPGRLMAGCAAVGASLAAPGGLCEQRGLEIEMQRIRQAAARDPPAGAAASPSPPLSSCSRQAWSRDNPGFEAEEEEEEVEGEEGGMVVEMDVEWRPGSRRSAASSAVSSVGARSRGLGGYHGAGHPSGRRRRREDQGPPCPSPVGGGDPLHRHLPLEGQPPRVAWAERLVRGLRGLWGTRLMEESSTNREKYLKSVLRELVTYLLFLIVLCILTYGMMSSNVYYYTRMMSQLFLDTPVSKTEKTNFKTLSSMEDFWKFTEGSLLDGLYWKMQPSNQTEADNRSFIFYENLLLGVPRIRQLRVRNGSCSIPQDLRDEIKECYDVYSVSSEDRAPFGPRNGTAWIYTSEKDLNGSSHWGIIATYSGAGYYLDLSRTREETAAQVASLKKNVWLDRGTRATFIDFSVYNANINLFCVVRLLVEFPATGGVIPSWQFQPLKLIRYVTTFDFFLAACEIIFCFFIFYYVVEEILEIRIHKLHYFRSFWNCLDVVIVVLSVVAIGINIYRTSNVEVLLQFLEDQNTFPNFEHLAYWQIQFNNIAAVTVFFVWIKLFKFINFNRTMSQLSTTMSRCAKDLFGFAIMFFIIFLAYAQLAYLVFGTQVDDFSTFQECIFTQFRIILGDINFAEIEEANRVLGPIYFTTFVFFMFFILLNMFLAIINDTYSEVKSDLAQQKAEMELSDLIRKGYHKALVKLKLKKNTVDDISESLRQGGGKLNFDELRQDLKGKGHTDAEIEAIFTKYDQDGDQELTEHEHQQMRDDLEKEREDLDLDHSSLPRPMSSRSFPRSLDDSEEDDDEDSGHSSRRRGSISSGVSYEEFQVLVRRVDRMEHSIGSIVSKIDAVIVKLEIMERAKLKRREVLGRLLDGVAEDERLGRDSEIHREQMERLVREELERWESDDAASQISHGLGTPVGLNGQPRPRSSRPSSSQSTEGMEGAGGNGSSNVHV

[2] = target: T3, endogenous PKD2 of HEK cells (human (endogenous in HEK cells)) (UniProt Q13563); assay: co-IP; HEK cell lysates (CelLytic M lysis buffer), antibody 5 h at 4 °C, protein A/G magnetic beads overnight, Western blot; proteins transfected or endogenous; for the PKD2 N/C and PKD2/PKD2 pairs with or without RASSF4 over-expression
T3 sequence: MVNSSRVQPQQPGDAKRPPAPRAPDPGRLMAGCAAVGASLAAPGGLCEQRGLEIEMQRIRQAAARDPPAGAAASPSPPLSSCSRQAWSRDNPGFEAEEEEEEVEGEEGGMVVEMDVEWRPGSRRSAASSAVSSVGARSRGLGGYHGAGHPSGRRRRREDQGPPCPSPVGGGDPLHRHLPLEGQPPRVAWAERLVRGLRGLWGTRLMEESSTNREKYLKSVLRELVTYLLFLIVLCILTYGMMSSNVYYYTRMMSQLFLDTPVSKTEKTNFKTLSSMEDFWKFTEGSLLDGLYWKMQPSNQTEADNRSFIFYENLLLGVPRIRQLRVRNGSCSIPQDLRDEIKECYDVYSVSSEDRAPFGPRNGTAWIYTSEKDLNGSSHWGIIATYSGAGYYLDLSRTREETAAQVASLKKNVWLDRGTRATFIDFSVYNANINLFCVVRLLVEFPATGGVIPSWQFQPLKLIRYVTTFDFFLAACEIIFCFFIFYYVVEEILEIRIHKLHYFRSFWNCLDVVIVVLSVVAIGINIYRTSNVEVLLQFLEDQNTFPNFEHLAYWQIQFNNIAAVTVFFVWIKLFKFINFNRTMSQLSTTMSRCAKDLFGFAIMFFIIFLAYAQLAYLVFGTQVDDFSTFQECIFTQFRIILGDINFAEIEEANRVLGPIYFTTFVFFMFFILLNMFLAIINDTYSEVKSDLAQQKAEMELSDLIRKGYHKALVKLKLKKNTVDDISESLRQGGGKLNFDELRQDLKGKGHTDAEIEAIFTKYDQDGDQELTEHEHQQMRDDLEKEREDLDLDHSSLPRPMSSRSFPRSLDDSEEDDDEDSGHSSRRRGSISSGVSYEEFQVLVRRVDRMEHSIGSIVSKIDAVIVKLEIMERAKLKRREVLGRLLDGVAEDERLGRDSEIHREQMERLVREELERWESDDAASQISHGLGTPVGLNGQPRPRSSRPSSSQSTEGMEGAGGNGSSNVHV

Binder	binding (Flag-tagged PKD2 (human))	further results
GFP-tagged RASSF4 fragment Q70-A133 (domain or fragment, UniProt Q9H2L5 70-133) QMQDDREQVHLPSTSWMPRRPSCPLKEPSPQNGNITAQGPSIQPVHKAESSTDSSGPLEEAEEA	binds	–
PQLMRTKSDASCMSQRRPKCRAPGEAQRIRRHRFS (domain or fragment, UniProt Q9H2L5 134-168) [GFP-tagged RASSF4 fragment P134-S168]	binds	–
human RASSF4 expressed in Xenopus oocytes (protein, UniProt Q9H2L5 1-321) MKEDCLPSSHVPISDSKSIQKSELLGLLKTYNCYHEGKSFQLRHREEEGTLIIEGLLNIAWGLRRPIRLQMQDDREQVHLPSTSWMPRRPSCPLKEPSPQNGNITAQGPSIQPVHKAESSTDSSGPLEEAEEAPQLMRTKSDASCMSQRRPKCRAPGEAQRIRRHRFSINGHFYNHKTSVFTPAYGSVTNVRVNSTMTTLQVLTLLLNKFRVEDGPSEFALYIVHESGERTKLKDCEYPLISRILHGPCEKIARIFLMEADLGVEVPHEVAQYIKFEMPVLDSFVEKLKEEEEREIIKLTMKFQALRLTMLQRLEQLVEAK	–	binding [1]: binds
endogenous RASSF4 of HEK cells (protein, UniProt Q9H2L5 1-321) MKEDCLPSSHVPISDSKSIQKSELLGLLKTYNCYHEGKSFQLRHREEEGTLIIEGLLNIAWGLRRPIRLQMQDDREQVHLPSTSWMPRRPSCPLKEPSPQNGNITAQGPSIQPVHKAESSTDSSGPLEEAEEAPQLMRTKSDASCMSQRRPKCRAPGEAQRIRRHRFSINGHFYNHKTSVFTPAYGSVTNVRVNSTMTTLQVLTLLLNKFRVEDGPSEFALYIVHESGERTKLKDCEYPLISRILHGPCEKIARIFLMEADLGVEVPHEVAQYIKFEMPVLDSFVEKLKEEEEREIIKLTMKFQALRLTMLQRLEQLVEAK	–	binding [2]: binds
GFP-tagged RASSF4 fragment G157-E269 (RA domain) (domain or fragment, UniProt Q9H2L5 157-269) GEAQRIRRHRFSINGHFYNHKTSVFTPAYGSVTNVRVNSTMTTLQVLTLLLNKFRVEDGPSEFALYIVHESGERTKLKDCEYPLISRILHGPCEKIARIFLMEADLGVEVPHE	no binding	–
GFP-tagged RASSF4 fragment V270-K321 (SARAH domain plus the C-terminus) (domain or fragment, UniProt Q9H2L5 270-321) VAQYIKFEMPVLDSFVEKLKEEEEREIIKLTMKFQALRLTMLQRLEQLVEAK	no binding	–
